Test results as given in the supplement of paper PMC4604168 (melanoma cell lines).
The other results are listed elsewhere or left out. Repeats are few or missing, and single values can be far off.

System: WM115
Assay: cell count relative to DMSO control; melanoma cells; higher = more viable cells
Settings: library dose: low library concentration; 72 h
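Note: cell number obtained by counting DAPI-stained nuclei in high-throughput microscope images with image analysis software, screen run in 1,536-well plates.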

Structure (SMILES)	cell count
CC[C@]1(O)C[C@H]2CN(CCc3c([nH]c4ccccc34)[C@@](C(=O)OC)(c3cc4c(cc3OC)N(C=O)[C@H]3[C@@](O)(C(=O)OC)[C@H](OC(C)=O)[C@]5(CC)C=CCN6CC[C@]43[C@@H]65)C2)C1 [vincristine] + CS(=O)(=O)c1ccc(C(=O)Nc2ccc(Cl)c(-c3ccccn3)c2)c(Cl)c1 [vismodegib] (first compound 0.0001 µM, partner dose 1 µM)	55.5%
CC[C@]1(O)C[C@H]2CN(CCc3c([nH]c4ccccc34)[C@@](C(=O)OC)(c3cc4c(cc3OC)N(C=O)[C@H]3[C@@](O)(C(=O)OC)[C@H](OC(C)=O)[C@]5(CC)C=CCN6CC[C@]43[C@@H]65)C2)C1 [vincristine] + CN(NC(=O)CC(=O)NN(C)C(=S)c1ccccc1)C(=S)c1ccccc1 [STA4783] (first compound 0.0001 µM, partner dose 0.006 µM)	32.3%
N#CC[C@H](C1CCCC1)n1cc(-c2ncnc3[nH]ccc23)cn1 [ruxolitinib] + O=C(CCCCCCC(=O)Nc1ccccc1)NO [vorinostat] (first compound 1 µM, partner dose 0.08 µM)	107%
CC[C@]1(O)C[C@H]2CN(CCc3c([nH]c4ccccc34)[C@@](C(=O)OC)(c3cc4c(cc3OC)N(C=O)[C@H]3[C@@](O)(C(=O)OC)[C@H](OC(C)=O)[C@]5(CC)C=CCN6CC[C@]43[C@@H]65)C2)C1 [vincristine] + Cc1cn(-c2cc(NC(=O)c3ccc(C)c(Nc4nccc(-c5cccnc5)n4)c3)cc(C(F)(F)F)c2)cn1 [nilotinib] (first compound 0.0001 µM, partner dose 0.2 µM)	53.1%
N#CC[C@H](C1CCCC1)n1cc(-c2ncnc3[nH]ccc23)cn1 [ruxolitinib] + COc1cc([C@@H]2c3cc4c(cc3[C@@H](O[C@@H]3O[C@@H]5CO[C@@H](C)O[C@H]5[C@H](O)[C@H]3O)[C@H]3COC(=O)[C@H]23)OCO4)cc(OC)c1O [etoposide] (first compound 1 µM, partner dose 0.02 µM)	104%
CC[C@]1(O)C[C@H]2CN(CCc3c([nH]c4ccccc34)[C@@](C(=O)OC)(c3cc4c(cc3OC)N(C=O)[C@H]3[C@@](O)(C(=O)OC)[C@H](OC(C)=O)[C@]5(CC)C=CCN6CC[C@]43[C@@H]65)C2)C1 [vincristine] + Cn1sc(=O)n(Cc2ccccc2)c1=O [TDZD-8] (first compound 0.0001 µM, partner dose 0.4 µM)	70.5%
N#CC[C@H](C1CCCC1)n1cc(-c2ncnc3[nH]ccc23)cn1 [ruxolitinib] + Oc1cc(-c2nc(-c3ccccc3)[nH]c2-c2ccncc2)ccc1Cl [L779450] (first compound 1 µM, partner dose 0.2 µM)	93%
CC[C@]1(O)C[C@H]2CN(CCc3c([nH]c4ccccc34)[C@@](C(=O)OC)(c3cc4c(cc3OC)N(C=O)[C@H]3[C@@](O)(C(=O)OC)[C@H](OC(C)=O)[C@]5(CC)C=CCN6CC[C@]43[C@@H]65)C2)C1 [vincristine] + C[C@@H](Oc1cc(-c2cnn(C3CCNCC3)c2)cnc1N)c1c(Cl)ccc(F)c1Cl [Crizotinib] (first compound 0.0001 µM, partner dose 0.2 µM)	53.1%
CC[C@]1(O)C[C@H]2CN(CCc3c([nH]c4ccccc34)[C@@](C(=O)OC)(c3cc4c(cc3OC)N(C=O)[C@H]3[C@@](O)(C(=O)OC)[C@H](OC(C)=O)[C@]5(CC)C=CCN6CC[C@]43[C@@H]65)C2)C1 [vincristine] + CCN(CC)CCNC(=O)c1c(C)[nH]c(/C=C2\C(=O)Nc3ccc(F)cc32)c1C [sunitinib] (first compound 0.0001 µM, partner dose 0.4 µM)	66.1%
Cc1cc(Nc2cc(N3CCN(C)CC3)nc(Sc3ccc(NC(=O)C4CC4)cc3)n2)n[nH]1 [Tozasertib] + C=CCn1c(=O)c2cnc(Nc3ccc(N4CCN(C)CC4)cc3)nc2n1-c1cccc(C(C)(C)O)n1 [MK1775] (first compound 0.006 µM, partner dose 0.02 µM)	84.7%
CC[C@]1(O)C[C@H]2CN(CCc3c([nH]c4ccccc34)[C@@](C(=O)OC)(c3cc4c(cc3OC)N(C=O)[C@H]3[C@@](O)(C(=O)OC)[C@H](OC(C)=O)[C@]5(CC)C=CCN6CC[C@]43[C@@H]65)C2)C1 [vincristine] + CCN(CC)CCCCNc1ncc2cc(-c3cc(OC)cc(OC)c3)c(NC(=O)NC(C)(C)C)nc2n1 [PD173074] (first compound 0.0001 µM, partner dose 0.1 µM)	69.2%
N#CC[C@H](C1CCCC1)n1cc(-c2ncnc3[nH]ccc23)cn1 [ruxolitinib] + CCN(CC)CCNC(=O)c1c(C)[nH]c(/C=C2\C(=O)Nc3ccc(F)cc32)c1C [sunitinib] (first compound 1 µM, partner dose 0.4 µM)	119%
Cc1cc(Nc2cc(N3CCN(C)CC3)nc(Sc3ccc(NC(=O)C4CC4)cc3)n2)n[nH]1 [Tozasertib] + Cn1sc(=O)n(Cc2ccccc2)c1=O [TDZD-8] (first compound 0.006 µM, partner dose 0.4 µM)	97.5%
N#CC[C@H](C1CCCC1)n1cc(-c2ncnc3[nH]ccc23)cn1 [ruxolitinib] + CC[C@]1(O)C[C@H]2CN(CCc3c([nH]c4ccccc34)[C@@](C(=O)OC)(c3cc4c(cc3OC)N(C=O)[C@H]3[C@@](O)(C(=O)OC)[C@H](OC(C)=O)[C@]5(CC)C=CCN6CC[C@]43[C@@H]65)C2)C1 [vincristine] (first compound 1 µM, partner dose 0.0001 µM)	95.4%
CC[C@]1(O)C[C@H]2CN(CCc3c([nH]c4ccccc34)[C@@](C(=O)OC)(c3cc4c(cc3OC)N(C=O)[C@H]3[C@@](O)(C(=O)OC)[C@H](OC(C)=O)[C@]5(CC)C=CCN6CC[C@]43[C@@H]65)C2)C1 [vincristine] + OCc1c[nH]c2ccccc12 [Indole-3-carbinol] (first compound 0.0001 µM, partner dose 0.8 µM)	49.6%
Cc1cc(Nc2cc(N3CCN(C)CC3)nc(Sc3ccc(NC(=O)C4CC4)cc3)n2)n[nH]1 [Tozasertib] + Cc1nc(Nc2ncc(C(=O)Nc3c(C)cccc3Cl)s2)cc(N2CCN(CCO)CC2)n1 [dasatanib] (first compound 0.006 µM, partner dose 0.004 µM)	64.2%
N#CC[C@H](C1CCCC1)n1cc(-c2ncnc3[nH]ccc23)cn1 [ruxolitinib] + O=C(O)[C@@H]1[O][Sb](=[O])([O][Sb]2(=[O])[O][C@H]([C@H](O)CO)[C@H](O)[C@H](C(=O)O)[O]2)[O][C@H]([C@H](O)CO)[C@@H]1O [stibogluconate] (first compound 1 µM, partner dose 2 µM)	99.4%
CC[C@]1(O)C[C@H]2CN(CCc3c([nH]c4ccccc34)[C@@](C(=O)OC)(c3cc4c(cc3OC)N(C=O)[C@H]3[C@@](O)(C(=O)OC)[C@H](OC(C)=O)[C@]5(CC)C=CCN6CC[C@]43[C@@H]65)C2)C1 [vincristine] + O=C(/C=C/c1cccnc1)NCCCCC1CCN(C(=O)c2ccccc2)CC1 [FK866] (first compound 0.0001 µM, partner dose 0.01 µM)	55.3%
N#CC[C@H](C1CCCC1)n1cc(-c2ncnc3[nH]ccc23)cn1 [ruxolitinib] + COc1ccc(-c2ccc3c(N4CCOCC4)nc(N4C[C@@H](C)O[C@@H](C)C4)nc3n2)cc1CO [KU0063794] (first compound 1 µM, partner dose 0.02 µM)	109%
CC[C@]1(O)C[C@H]2CN(CCc3c([nH]c4ccccc34)[C@@](C(=O)OC)(c3cc4c(cc3OC)N(C=O)[C@H]3[C@@](O)(C(=O)OC)[C@H](OC(C)=O)[C@]5(CC)C=CCN6CC[C@]43[C@@H]65)C2)C1 [vincristine] + Nc1ccn([C@@H]2O[C@H](CO)[C@@H](O)C2(F)F)c(=O)n1 [gemcitabine] (first compound 0.0001 µM, partner dose 0.0004 µM)	58.3%
Cc1cc(Nc2cc(N3CCN(C)CC3)nc(Sc3ccc(NC(=O)C4CC4)cc3)n2)n[nH]1 [Tozasertib] + O=S(=O)(c1ccccc1)N(CC(F)(F)F)c1ccc(C(O)(C(F)(F)F)C(F)(F)F)cc1 [T0901317] (first compound 0.006 µM, partner dose 1.4 µM)	87.8%
CC[C@]1(O)C[C@H]2CN(CCc3c([nH]c4ccccc34)[C@@](C(=O)OC)(c3cc4c(cc3OC)N(C=O)[C@H]3[C@@](O)(C(=O)OC)[C@H](OC(C)=O)[C@]5(CC)C=CCN6CC[C@]43[C@@H]65)C2)C1 [vincristine] + COc1cc2c(Oc3ccc4[nH]c(C)cc4c3F)ncnc2cc1OCCCN1CCCC1 [cediranib] (first compound 0.0001 µM, partner dose 0.4 µM)	59.1%
CC[C@]1(O)C[C@H]2CN(CCc3c([nH]c4ccccc34)[C@@](C(=O)OC)(c3cc4c(cc3OC)N(C=O)[C@H]3[C@@](O)(C(=O)OC)[C@H](OC(C)=O)[C@]5(CC)C=CCN6CC[C@]43[C@@H]65)C2)C1 [vincristine] + CCCCCCCCc1ccc(CCC(N)(CO)CO)cc1 [fingolimod] (first compound 0.0001 µM, partner dose 2 µM)	55.3%
